Laboratory results published in publication PMC4908412, “β-arrestin-1 contributes to brown fat function and directly interacts with PPARα and PPARγ” (Scientific Reports, 2016).

Columns and labels:
Assay in all cases: BLI; Octet Red 96; 50 μg/ml biotinylated PPARα-LBD or PPARγ-LBD (or their mutants) immobilised on streptavidin biosensors; analyte β-arrestin-1, βarr1M or peptides in solution (single 2 μM or serial dilutions, β-arrestin-1 0.5–32 μM); 25 °C; 2:1 heterogeneous ligand model and steady-state analysis
Settings in all cases: both partners purified
[1] = target: T1, PPARγ-ligand binding domain (amino acids 204–477) (human, UniProt P37231-2 204-477, biotinylated for biolayer interferometry; 15N-labeled for NMR)
T1 construct: The His tag is used for capture in the pulldown; also called PPARγ-LBD; wild-type PPARγ; source: E. coli BL21 (DE3)-CodonPlus, purified; not shown: His6, N-terminal, kept
T1 sequence (looked up): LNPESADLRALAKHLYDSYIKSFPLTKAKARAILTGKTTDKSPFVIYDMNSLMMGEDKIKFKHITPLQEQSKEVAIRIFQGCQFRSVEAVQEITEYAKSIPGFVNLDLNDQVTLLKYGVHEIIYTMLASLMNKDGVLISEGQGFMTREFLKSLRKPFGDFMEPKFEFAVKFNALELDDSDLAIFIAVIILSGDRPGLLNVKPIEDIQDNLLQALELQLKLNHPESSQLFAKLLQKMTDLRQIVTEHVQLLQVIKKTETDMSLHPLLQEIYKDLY

[2] = target: T2, PPARα-ligand binding domain (amino acids 196–468) (human, UniProt Q07869 196-468, biotinylated for biolayer interferometry; 15N-labeled for NMR)
T2 construct: The His tag is used for capture in the pulldown; also called PPARα-LBD; wild-type PPARα; source: E. coli BL21 (DE3)-CodonPlus, purified; not shown: His6, N-terminal, kept
T2 sequence (looked up): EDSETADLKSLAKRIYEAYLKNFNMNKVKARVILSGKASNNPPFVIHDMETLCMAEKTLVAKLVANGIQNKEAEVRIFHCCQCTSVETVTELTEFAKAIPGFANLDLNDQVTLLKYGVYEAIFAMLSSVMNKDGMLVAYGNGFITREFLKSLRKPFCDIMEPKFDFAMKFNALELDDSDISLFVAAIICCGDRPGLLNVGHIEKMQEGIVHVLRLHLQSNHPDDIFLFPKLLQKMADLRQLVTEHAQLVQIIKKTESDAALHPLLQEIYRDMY

[3] = target: T1, PPARγ-ligand binding domain (amino …); remark: listed apart in the source
[4] = target: T2, PPARα-ligand binding domain (amino …); remark: listed apart in the source

B1: β-arrestin-1 double mutant with L100A and L104A (natural protein)
chain: not shown
notes: β-arrestin-1 with L100A and L104A; also called βarr1M; source: purified
KD1 (2:1 HL model) [1]: 2.97 µM
KD2 (2:1 HL model) [1]: 0.95 µM
koff1 (2:1 HL model) [1]: 0.742 S^−1
koff2 (2:1 HL model) [1]: 0.00124 S^−1
kon1 (2:1 HL model) [1]: 250000 M^−1S^−1
kon2 (2:1 HL model) [1]: 1300 M^−1S^−1
KD1 (2:1 HL model) [2]: 1.53 µM
KD2 (2:1 HL model) [2]: 1.76 µM
koff1 (2:1 HL model) [2]: 0.00281 S^−1
koff2 (2:1 HL model) [2]: 0.269 S^−1
kon1 (2:1 HL model) [2]: 1840 M^−1S^−1
kon2 (2:1 HL model) [2]: 153000 M^−1S^−1
maximum response [3]: 0.59 nm
maximum response [4]: 0.46 nm
